Source: publication PMC11995724, “Antibiotic target discovery by integrated phenotypic and activity-based profiling of electrophilic fragments” (Cell chemical biology, 2025)
In all, about 3,200 compounds went through this assay and about 110 (3.4%) showed an effect of 50% or more. This is one part of the list.

System: T1, V. cholerae SAD30
T1 construct: SAD30
Parameters: species or system S. aureus MSSA476 (TSB) or V. cholerae SAD30 (LB); 384-well bacterial growth screen at 25 uM, OD600 relative to DMSO control
Conditions: relative growth, OD600, LB; 25 µM; inhibitor

| SMILES | % of control remaining [%] |
| --- | --- |
| Cc1cccc(C=C(C#N)C(=O)NC(C)C)c1 [8-J07, 2-cyano-3-(3-methylphenyl)-N-(propan-2-yl)prop-2-enamide] | 74.4392 |
| C=CC(=O)N1CCC(C(=O)N2CCc3ccc([N+](=O)[O-])cc32)CC1 [1-C06, 1-[4-(6-nitro-2,3-dihydro-1H-indole-1-carbonyl)piperidin-1-yl]prop-2-en-1-one] | 92.6756 |
| CC(Cl)C(=O)N1CCOCC1c1nc(-c2cccs2)no1 (stereo not shown) [7-B17, 2-chloro-1-{3-[3-(thiophen-2-yl)-1,2,4-oxadiazol-5-yl]morpholin-4-yl}propan-1-one] | 72.6912 |
| Cn1ccnc1Sc1ccc(C=C(C#N)C(N)=O)cc1[N+](=O)[O-] [8-D03, 2-cyano-3-{4-[(1-methyl-1H-imidazol-2-yl)sulfanyl]-3-nitrophenyl}prop-2-enamide] | 97.5527 |
| C=CC(=O)N[C@H]1CCCC[C@H]1n1cc(C(C)(C)O)nn1 [1-P07, N-[(1S,2R)-2-[4-(2-hydroxypropan-2-yl)-1H-1,2,3-triazol-1-yl]cyclohexyl]prop-2-enamide] | 103.139 |
| CN(C)S(=O)(=O)c1ccccc1CNC(=O)CCl [4-J22, 2-chloro-N-{[2-(dimethylsulfamoyl)phenyl]methyl}acetamide] | 115.247 |
| Cc1ccc(NC(=O)N2CCSSCC2)c(C)c1 [10-F11, N-(2,4-dimethylphenyl)-1,2,5-dithiazepane-5-carboxamide] | 95.0711 |
| C=CC(=O)Nc1ccc(CN2CCC(C)CC2)cc1 [1-D21, N-{4-[(4-methylpiperidin-1-yl)methyl]phenyl}prop-2-enamide] | 93.2735 |
| C=CC(=O)NCc1nnc(COC)[nH]1 [3-F10, N-{[5-(methoxymethyl)-4H-1,2,4-triazol-3-yl]methyl}prop-2-enamide] | 95.0891 |
| C=CCNC(=O)C(C#N)=Cc1cc(C)n(-c2ccc(C)cc2)c1C [8-C17, 2-cyano-3-[2,5-dimethyl-1-(4-methylphenyl)-1H-pyrrol-3-yl]-N-(prop-2-en-1-yl)prop-2-enamide] | 61.9307 |
| C=CC(=O)Nc1ccc(C2=NNC(=O)CO2)cc1 [3-L18, N-[4-(5-oxo-5,6-dihydro-4H-1,3,4-oxadiazin-2-yl)phenyl]prop-2-enamide] | 93.6776 |
| C=CC(=O)NCc1cc(-c2cccc(OC)c2)no1 [1-I11, N-{[3-(3-methoxyphenyl)-1,2-oxazol-5-yl]methyl}prop-2-enamide] | 85.9492 |
| C=CC(=O)N1CCCC(S(=O)(=O)NC)C1 (stereo not shown) [3-D17, N-methyl-1-(prop-2-enoyl)piperidine-3-sulfonamide] | 100.912 |
| CC(Cl)C(=O)N(Cc1ccc(Cl)cc1)Cc1cnn(C)c1 (stereo not shown) [5-P17, 2-chloro-N-[(4-chlorophenyl)methyl]-N-[(1-methyl-1H-pyrazol-4-yl)methyl]propanamide] | 96.8372 |
| C=CC(=O)NCc1ccc(-n2ccc(C)n2)nc1 [3-H16, N-{[6-(3-methyl-1H-pyrazol-1-yl)pyridin-3-yl]methyl}prop-2-enamide] | 91.5604 |
| N#CC(C(=O)Nc1ccc2c(c1)OCCO2)=C1N=C(N)c2ccccc21 [8-L03, 2-(3-amino-1H-isoindol-1-ylidene)-2-cyano-N-(2,3-dihydro-1,4-benzodioxin-6-yl)acetamide] | 85.588 |
| CCN(C(=O)CCl)C(c1ccccc1)c1ccc(F)cc1 (stereo not shown) [6-J11, 2-chloro-N-ethyl-N-[(4-fluorophenyl)(phenyl)methyl]acetamide] | 85.9987 |
| CC(Cl)C(=O)NC(C)c1nnc2n1CCCC2 (stereo not shown) [6-H13, 2-chloro-N-(1-{5H,6H,7H,8H-[1,2,4]triazolo[4,3-a]pyridin-3-yl}ethyl)propanamide] | 88.5771 |
| CC1CN(S(=O)(=O)c2ccc(NC(=O)CCl)cc2)CC(C)O1 (stereo not shown) [5-O15, 2-chloro-N-{4-[(2,6-dimethylmorpholin-4-yl)sulfonyl]phenyl}acetamide] | 100.032 |
| Cc1noc(C)c1C(=O)CCl [10-K13, 2-chloro-1-(3,5-dimethyl-1,2-oxazol-4-yl)ethan-1-one] | 23.0664 |
| O=C1C=CC(=O)N1c1ccc2ccccc2c1 [10-D07, 1-(naphthalen-2-yl)-2,5-dihydro-1H-pyrrole-2,5-dione] | 22.2872 |
| C=CC(=O)Nc1ccoc1C(=O)c1ccc(C)cc1 [1-A04, N-[2-(4-methylbenzoyl)furan-3-yl]prop-2-enamide] | 72.9447 |
| CC(Cl)C(=O)Nc1ccc2ccccc2c1 (stereo not shown) [5-H10, 2-chloro-N-(naphthalen-2-yl)propanamide] | 71.1148 |

| SMILES | % of control remaining [%] |
| --- | --- |
| CC(C)CNC(=O)c1ccccc1NC(=O)CCl [4-E04, 2-(2-chloroacetamido)-N-(2-methylpropyl)benzamide] | 105.24 |
| Cc1ccc(C(=O)c2ccccc2NC(=O)CCl)cc1 [4-N17, 2-chloro-N-[2-(4-methylbenzoyl)phenyl]acetamide] | 101.445 |
| N#CC(=CC1=Cc2ccccc2OC1)C(=O)Nc1ccc(C(=O)O)cc1 [8-N08, 4-[3-(2H-chromen-3-yl)-2-cyanoprop-2-enamido]benzoic acid] | 71.9918 |
| CC(Cl)C(=O)NCCN(C)S(=O)(=O)c1cccs1 (stereo not shown) [7-F05, 2-chloro-N-[2-(N-methylthiophene-2-sulfonamido)ethyl]propanamide] | 81.4142 |
| CC(Cl)C(=O)Nc1ncnc2[nH]cnc12 (stereo not shown) [6-I18, 2-chloro-N-(9H-purin-6-yl)propanamide] | 89.0321 |
| Cl.O=C1C=CC(=O)N1C1CNC1 [10-O19, 1-(azetidin-3-yl)-2,5-dihydro-1H-pyrrole-2,5-dione hydrochloride] | 100.994 |
| COc1cc(NC(=O)C(C)Cl)cc(OC)c1 (stereo not shown) [4-I04, 2-chloro-N-(3,5-dimethoxyphenyl)propanamide] | 104.895 |
| C=CC(=O)NCc1ccc(C(=O)N2CCCC2)cc1 [3-O05, N-{[4-(pyrrolidine-1-carbonyl)phenyl]methyl}prop-2-enamide] | 110.086 |
| CNC(=O)c1cc(OC2CCCN(C(=O)CCl)C2)ccn1 (stereo not shown) [5-P05, 4-{[1-(2-chloroacetyl)piperidin-3-yl]oxy}-N-methylpyridine-2-carboxamide] | 111.968 |
| Cc1ccc(C=C(C#N)C(=O)NC(N)=O)o1 [8-D21, {2-cyano-2-[(5-methylfuran-2-yl)methylidene]acetyl}urea] | 88.1713 |
| COc1ccc(-c2csc(NC(=O)CCl)n2)c(OC)c1 [4-F12, 2-chloro-N-[4-(2,4-dimethoxyphenyl)-1,3-thiazol-2-yl]acetamide] | 98.6845 |
| Cc1cc(NS(=O)(=O)c2ccc(NC(=O)CCl)cc2)nc(C)n1 [5-I09, 2-chloro-N-{4-[(2,6-dimethylpyrimidin-4-yl)sulfamoyl]phenyl}acetamide] | 98.3503 |
| Cc1noc(C)c1CN(C)C(=O)CCl [5-G06, 2-chloro-N-[(3,5-dimethyl-1,2-oxazol-4-yl)methyl]-N-methylacetamide] | 92.4661 |
| CC(C)c1ccc(CC(=O)CCl)cc1 [10-I17, 1-chloro-3-[4-(propan-2-yl)phenyl]propan-2-one] | 115.644 |
| C=CC(=O)N(C)C[C@@H]1CCC(=O)N1 [3-A22, N-methyl-N-{[(2S)-5-oxopyrrolidin-2-yl]methyl}prop-2-enamide] | 131.612 |
| C=CC(=O)NC(c1nc(C)cs1)C(F)(F)F (stereo not shown) [2-I17, N-[2,2,2-trifluoro-1-(4-methyl-1,3-thiazol-2-yl)ethyl]prop-2-enamide] | 88.6519 |
| COc1cccc(N2C(=O)C=CC2=O)c1 [10-K03, 1-(3-methoxyphenyl)-2,5-dihydro-1H-pyrrole-2,5-dione] | 23.8457 |
| CC(Cl)C(=O)NC1CCCCC1 (stereo not shown) [4-O06, 2-chloro-N-cyclohexylpropanamide] | 109.209 |
| C=CC(=O)N(C)Cc1ccn(CC)n1 [1-L16, N-[(1-ethyl-1H-pyrazol-3-yl)methyl]-N-methylprop-2-enamide] | 75.3189 |
| C=CC(=O)N(CC)CC(=O)N1CCCC1c1ccc(F)cc1C (stereo not shown) [2-F08, N-ethyl-N-{2-[2-(4-fluoro-2-methylphenyl)pyrrolidin-1-yl]-2-oxoethyl}prop-2-enamide] | 91.5854 |
| Cc1ccc(C(=O)CN(C(=O)CCl)c2ccccc2)cc1 [4-B13, 2-chloro-N-[2-(4-methylphenyl)-2-oxoethyl]-N-phenylacetamide] | 88.333 |
| CC(O)=C(C#N)C(=O)Nc1ccc(C(F)(F)F)cc1 [9-A05, 2-cyano-3-hydroxy-N-[4-(trifluoromethyl)phenyl]but-2-enamide] | 85.588 |
| CCN(CC)C(=O)c1ccc(NC(=O)CCl)cc1 [4-C05, 4-(2-chloroacetamido)-N,N-diethylbenzamide] | 102.653 |
